Test results taken from PubChem BioAssay AID652104 (National Center for Advancing Translational Sciences (NCATS), 2013).
About 7,200 (1.8%) of roughly 410,000 compounds were called active. The inconclusive results got no clear call from the source; some entries with a clear call stand among them for comparison. Calls come from the whole dose curve; as a rule, active = well fitted activation curve with a large enough effect; inconclusive = small, poorly fitted or top-dose-only effect, or another doubt; inactive = no such curve, though single readings can be large or run the other way. Potencies of inconclusive entries are left out as doubtful fits.

test: qHTS of TDP-43 Inhibitors; settings: TDP-43 expressing yeast growth rescue, BacTiter-Glo, 24 h; growth rescue (activation): at 46.1 µM (top of the series) unless noted; note: nearly all actives have a fitted effect of over 50% in size; for growth rescue (activation): % of control where 0% means no effect
Method in brief: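 Growth rescue of TDP-43-toxic yeast measured as ATP luminescence (BacTiter-Glo). Cells grown to mid-log in raffinose, induced in galactose at OD600=0.02, exposed to compound 24 hr at 30 deg C.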
Potency is the fitted concentration of half-maximal effect; tags give direction and shape of the fitted curve.

| Compound | Potency | growth rescue (activation) |
| --- | --- | --- |
| CC(=O)Nc1cc(C(=O)NCc2ccc(F)cc2)ccc1Sc1ccc(C)cc1 | inconclusive [activator, partial curve] | – |
| CC(C)COC(=O)c1cc(=O)[nH]c2ccccc12 | inconclusive [activator, single point] | – |
| CCOC(=O)c1ccc(N2C(=O)CC(N(C)CCc3ccc(OC)c(OC)c3)C2=O)cc1 (stereo not drawn) | – | inconclusive: -93.9% [activator] |
| COc1ccccc1C(=O)NS(=O)(=O)c1ccc(C)cc1 | active: 17.8 µM | – |
| COc1nc(-c2ccccc2)c2c(c1C#N)CC(C)(C)OC2 | inconclusive [activator, partial curve] | – |
| C=CCn1c(SC2CCOC2=O)nc2scc(C3CC3)c2c1=O (stereo not drawn) | inconclusive [activator, single point] | – |
| CCOC(=O)c1c(-c2ccc(F)cc2)csc1NC(=O)CCN1CCOCC1 | inactive | – |
| Cc1cc(C)cc(NC(=O)CSc2nnc(COc3ccccc3Cl)o2)c1 | inconclusive [activator, partial curve, poor fit] | – |
| CCN(CC)S(=O)(=O)c1ccc2c(c1)c(=O)c(C(=O)N(C)Cc1ccccc1)cn2C | inactive | – |
| CCCCOC(=O)Nc1cccc(C(=O)OCC)c1 | inconclusive [activator, partial curve] | – |
| COc1ccc(/C=C/C(=O)Nc2ccc3nc(N4CCC(C)CC4)cc(C)c3c2)cc1OC | inactive | – |
| CCNC(=O)C1(C)CCN(C(=O)c2ccccc2F)C1 (stereo not drawn) | inactive | – |
| O=C(c1ccc(-c2ccc([N+](=O)[O-])cc2)o1)N1CCCCC1 | active: 12.6 µM | – |
| Cn1cc(SCC(=O)NCCc2ccccc2)c2ccccc21 | inconclusive [activator, full curve, poor fit] | – |
| CC(C)CCn1c(N2CCc3ccccc3C2)nc2c1c(=O)[nH]c(=O)n2C | inconclusive [activator, full curve, poor fit] | – |
| CCC1CCCCN1C(=S)Nc1ccc(SC(F)F)cc1 (stereo not drawn) | inconclusive [activator, partial curve] | – |
| CC1CCN(Cc2nc(-c3ccc(Cl)cc3)no2)CC1 | inactive | – |
| CC(C)Sc1nc2c(cnn2-c2ccc(F)cc2)c(=O)[nH]1 | inactive | – |
| CCCn1c2ccccc2c2cnn(CC(=O)Nc3cccc(C(=O)OCC)c3)c(=O)c21 | inactive | – |
| Brc1ccccc1-c1nc2c3ccccc3ncn2n1 | active: 14.1 µM | – |
| Cc1ccc(CN2C(=O)C(C)Sc3ccc(C#N)cc32)cc1 (stereo not drawn) | inconclusive [activator, single point] | – |
| Cc1cc(Cl)ccc1NS(=O)(=O)c1ccc2c(c1)CCN2S(C)(=O)=O | inconclusive [activator, partial curve] | – |
| Cc1cccc(CNC(=O)Cc2csc3ccccc23)c1 | inconclusive [activator, partial curve] | – |
| O=S(=O)(c1ccccc1)N1CCC(Oc2ccc(-n3cnnn3)cc2)CC1 | inconclusive [activator, single point] | – |
| Cc1cccc(-c2n[nH]c(=S)n2/N=C/c2ccco2)c1 | inconclusive [activator, single point] | – |

| Compound | Potency | growth rescue (activation) |
| --- | --- | --- |
| Clc1ccc(COc2ccccn2)cc1Cl | inactive | – |
| COc1ccc(CNC(=O)C2Cc3c(-c4ccccc4Oc4ccccc4)ccnc3O2)cc1OC (stereo not drawn) | inconclusive [activator, partial curve] | – |
| O=C1NC(=O)C(=O)N1 | inconclusive [activator, partial curve, poor fit] | – |
| CCOc1cc2sc(N3CCC(C(=O)Nc4ccc(C(C)C)cc4)CC3)nc2cc1Br | inactive | – |
| CC(C)C[C@@]12C(=O)N(c3cccc(Br)c3)C(=O)N1[C@H](c1ccc(F)cc1)[C@@H]1C(=O)N(C3CCCCC3)C(=O)[C@@H]12 | inconclusive [activator, partial curve, poor fit] | – |
| CCC(C)NC(=O)Cn1c(=O)n(CCCC(=O)NCc2ccc(C)cc2)c(=O)c2ccccc21 (stereo not drawn) | inactive | – |
| COC(=O)C1=C(C(=O)OC)SC(=C2C(=S)C(C)(C)N(C(=O)C3CC3)c3ccccc32)S1 | active: 2.24 µM | – |
| CCCc1ccc(-c2ccc(C(=O)O)cc2)nc1 | inconclusive [activator, single point] | – |
| CC1CCCCN1S(=O)(=O)c1ccc(F)c(C(=O)Nc2ccccc2C(F)(F)F)c1 (stereo not drawn) | inconclusive [activator, partial curve] | – |
| CCCOc1ccc(-c2nc(OC)c3ccccc3n2)cc1 | inactive | – |
| CC(=O)c1ccccc1OCCOCCOCCOc1ccccc1C(C)=O | inconclusive [activator, single point] | – |
| O=C(CC(O)CCc1ccccc1)c1ccc(O)cc1 (stereo not drawn) | active: 10 µM | – |
| COC(=O)c1c(C)c2c(C)cc3ccccn3c-2c1C(=O)OC | inactive | – |
| Cc1ccc(C)c(S(=O)(=O)N2CCN(C(=O)CSc3ccccc3)CC2)c1 | inconclusive [activator, partial curve] | – |
| COc1cnn(-c2ccccc2)c(=O)c1SCc1ccc(Cl)c(Cl)c1 | inconclusive [activator, single point] | – |
| COc1cc2nc(N3CCNCC3)nc(N)c2cc1OC | – | inconclusive: -89.1% [activator] |
| CC1CCN(S(=O)(=O)c2ccccc2[N+](=O)[O-])CC1 | inconclusive [activator, single point] | – |
| O=C(Cn1nc(C(F)(F)F)c2c1CCCC2)Nc1ccc(Cl)cc1 | inconclusive [activator, full curve, poor fit] | – |
| CC(C)Sc1ncc(Cl)c(C(=O)Nc2ccc(S(=O)(=O)N3CCCCC3C)cc2)n1 (stereo not drawn) | inactive | – |
| O=c1n(Cc2ccccc2)c(O)c2n1Cc1ccccc1N=C2c1ccc(C(F)(F)F)cc1 | inconclusive [activator, full curve, poor fit] | – |
| CC(=O)Nc1ccc(N=Nc2ccccc2)cc1[N+](=O)[O-] | inconclusive [activator, single point] | – |
| CCCCn1nc(NC(=O)CCC)c2cc3cc(OC)ccc3nc21 | inconclusive [activator, single point] | – |
| CC(C)(C)c1ccc2c(c1)OC(C(=O)N/N=C\c1ccccn1)CO2 (stereo not drawn) | inconclusive [activator, single point] | – |
| O=C(N/N=C1/C(=O)c2cccc3cccc1c23)c1ccc(Cl)cc1 | active: 17.8 µM | – |
| COc1ccc(-c2csc3nc(C(C)(C)C)oc(=O)c23)cc1OC | inconclusive [activator, partial curve] | – |

| Compound | Potency | growth rescue (activation) |
| --- | --- | --- |
| COc1ccc(OC(C)C(=O)NCc2nc(-c3ccc(Cl)cc3)no2)cc1 (stereo not drawn) | active: 15.8 µM | – |
| O=C(NCCOC(=O)Nc1cccc2ccccc12)OCc1ccccc1 | inconclusive [activator, single point] | – |
| CCOC(=O)c1ccc2ncc(C(=O)OCC)c(Nc3ccc(C)c(Br)c3)c2c1 | inconclusive [activator, partial curve] | – |
| CC(C)(C)c1ccc(C(=O)N2CCC2(C)C(=O)NCc2ccc3c(c2)OCO3)cc1 (stereo not drawn) | inconclusive [activator, single point] | – |
| c1ccc(C(=NNc2nc3ccccc3s2)c2ccccn2)cc1 | – | inconclusive: -68% [activator] |
| COc1ccc(C(=O)c2cn(CC(=O)Nc3ccc4c(c3)OCO4)c3ccc(OC)cc3c2=O)cc1 | inactive | – |
| COc1ccc(-c2nc3ccc(Cl)cn3c2Cc2cccc(F)c2)cc1OC | inconclusive [activator, single point] | – |
| Cc1occc1C(=O)N1CCN(c2ccc(Cl)c(Cl)c2)CC1 | inconclusive [activator, single point] | – |
| Cc1nc2ccccc2n1Cc1ccccc1 | inactive | – |
| CCCN(c1ccc(C)cc1)c1nc(=O)c2cccnc2s1 | inconclusive [activator, single point] | – |
| CCn1cc(C(=O)NC(C)c2ccccc2)c(=O)c2cc(S(=O)(=O)N3CCc4ccccc4C3)ccc21 (stereo not drawn) | inactive | – |
| O=C(CCl)N=c1sccn1Cc1ccccc1Cl | active: 22.4 µM | – |
| CC1CC(=O)C=C(O)C1C(=O)OC(C)(C)C (stereo not drawn) | inactive | – |
| CCCCC(=O)OCc1c(-c2cccc(OC)c2)ncc2ccccc12 | inconclusive [activator, partial curve] | – |
| COc1ccc(N2CCN(c3oc(-c4ccccc4OC)nc3C#N)CC2)cc1 | inconclusive [activator, single point] | – |
| CCCn1ccc2c(OCC(=O)Nc3ccc(F)cc3F)cccc2c1=O | active: 22.4 µM | – |
| CN(C)S(=O)(=O)c1ccc(N2CCCC2)c(C(=O)N2CCN(S(=O)(=O)c3ccc(F)c(F)c3)CC2)c1 | inactive | – |
| CC(/C=N/NC(=O)CSc1ccccn1)=C\c1ccc(C(C)C)cc1 | active: 20 µM | – |
| CCOc1ccc(NC(=O)CCN2C(=O)CSc3ccccc32)cc1 | inconclusive [activator, single point] | – |
| Cc1cc(C)c(OCC(=O)Nc2nnn(C)n2)c(Br)c1 | inconclusive [activator, single point] | – |
| Nc1cc(-c2nc3ncccc3o2)ccc1Cl | inconclusive [activator, partial curve] | – |
| CCC(C)NC(=O)c1[nH]c2cc(OC)ccc2c1Sc1ccc(C)cc1 (stereo not drawn) | inactive | – |
| Clc1cccc(OCc2nc(-c3ccncc3)no2)c1 | active: 11.2 µM | – |
